Measured values published in the supplement of paper PMC4604168 (melanoma cell lines).
Some of the results follow. Repeats are few or missing, and single values can be far off.

What follows are compounds tested on WM115 (assay: cell count relative to DMSO control; melanoma cells; higher = more viable cells). Details: library dose: low library concentration; 72 h.
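Also: cell number obtained by counting DAPI-stained nuclei in high-throughput microscope images with image analysis software, screen run in 1,536-well plates.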

SMILES | cell count
CN(C)S(=O)(=O)c1ccc2c(c1)/C(=C/c1cc3c([nH]1)CCCC3)C(=O)N2 + O=C(O)c1ccc(-c2c[nH]c3ncc(-c4ccccc4)cc23)cc1C1CCCC1 [GSK650394] (first compound 0.4 µM, partner dose 0.16 µM) | 84.3%
CO[C@@H]1[C@H](N(C)C(=O)c2ccccc2)C[C@H]2O[C@]1(C)n1c3ccccc3c3c4c(c5c6ccccc6n2c5c31)C(=O)NC4 [Midostaurin] + O=C(Nc1cccc(Cl)c1)Nc1ncc(CCNc2ncnc3ccsc23)s1 [SNS314] (first compound 0.08 µM, partner dose 0.0008 µM) | 50.6%
C=CCn1c(=O)c2cnc(Nc3ccc(N4CCN(C)CC4)cc3)nc2n1-c1cccc(C(C)(C)O)n1 + OCCn1cc(-c2cnc3nnn(Cc4ccc5ncccc5c4)c3n2)cn1 [PF04217903] (first compound 0.02 µM, partner dose 1 µM) | 91%
C[C@]1(c2nc3c(C(N)=O)cccc3[nH]2)CCCN1 [Veliparib] + COc1ccc2c(c1)CCC1C2CCC2(C)C(NCCCCCCN3C(=O)C=CC3=O)CCC12 [U73122] (first compound 1.4 µM, partner dose 0.4 µM) | 90.1%
CO[C@@H]1[C@H](N(C)C(=O)c2ccccc2)C[C@H]2O[C@]1(C)n1c3ccccc3c3c4c(c5c6ccccc6n2c5c31)C(=O)NC4 [Midostaurin] + Cc1cc([N+](=O)[O-])ccc1NS(=O)(=O)c1cc(Cl)ccc1Cl [FH535] (first compound 0.08 µM, partner dose 1 µM) | 77.7%
NC(=O)Nc1cc(-c2cccc(F)c2)sc1C(=O)N[C@H]1CCCNC1 + CCCCCCCCCCCC1=C(O)C(=O)C=C(O)C1=O [Embelin] (first compound 0.02 µM, partner dose 1.2 µM) | 110%
CO[C@@H]1[C@H](N(C)C(=O)c2ccccc2)C[C@H]2O[C@]1(C)n1c3ccccc3c3c4c(c5c6ccccc6n2c5c31)C(=O)NC4 [Midostaurin] + CCN(CC)CCCCNc1ncc2cc(-c3cc(OC)cc(OC)c3)c(NC(=O)NC(C)(C)C)nc2n1 [PD173074] (first compound 0.08 µM, partner dose 0.1 µM) | 98.5%
CO[C@@H]1[C@H](N(C)C(=O)c2ccccc2)C[C@H]2O[C@]1(C)n1c3ccccc3c3c4c(c5c6ccccc6n2c5c31)C(=O)NC4 [Midostaurin] + Cn1cncc1[C@@](N)(c1ccc(Cl)cc1)c1ccc2c(c1)c(-c1cccc(Cl)c1)cc(=O)n2C [tipifarnib] (first compound 0.08 µM, partner dose 0.01 µM) | 57.1%
CO[C@@H]1[C@H](N(C)C(=O)c2ccccc2)C[C@H]2O[C@]1(C)n1c3ccccc3c3c4c(c5c6ccccc6n2c5c31)C(=O)NC4 [Midostaurin] + CN(NC(=O)CC(=O)NN(C)C(=S)c1ccccc1)C(=S)c1ccccc1 [STA4783] (first compound 0.08 µM, partner dose 0.006 µM) | 82.3%
Cc1nc(Nc2ncc(C(=O)Nc3c(C)cccc3Cl)s2)cc(N2CCN(CCO)CC2)n1 [dasatanib] + CC(C)CCN1c2nc(Nc3cc(F)c(O)c(F)c3)ncc2N(C)C(=O)C1C [BID1870] (first compound 0.004 µM, partner dose 0.2 µM) | 79.7%
NC(=O)Nc1cc(-c2cccc(F)c2)sc1C(=O)N[C@H]1CCCNC1 + COC(=O)c1sccc1S(=O)(=O)Nc1ccc(Nc2ccccc2)cc1OC [GSK0660] (first compound 0.02 µM, partner dose 1 µM) | 87%
Cc1nc(Nc2ncc(C(=O)Nc3c(C)cccc3Cl)s2)cc(N2CCN(CCO)CC2)n1 [dasatanib] + NCC(=O)Nc1ccc(-n2nc(C(F)(F)F)cc2-c2ccc3c(ccc4ccccc43)c2)cc1 [OSU03012] (first compound 0.004 µM, partner dose 1 µM) | 69.2%
NC(=O)Nc1cc(-c2cccc(F)c2)sc1C(=O)N[C@H]1CCCNC1 + O=C(O)C(=O)Nc1sc2c(c1C(=O)O)CCNC2 [TCS401] (first compound 0.02 µM, partner dose 1.66667 µM) | 90.5%
OCCn1cc(-c2cnc3nnn(Cc4ccc5ncccc5c4)c3n2)cn1 + COc1ccc(COc2ccc(Cc3cnc(N)nc3N)cc2OC)cc1 [GW2580] (first compound 1 µM, partner dose 1 µM) | 102%
Cc1nc(Nc2ncc(C(=O)Nc3c(C)cccc3Cl)s2)cc(N2CCN(CCO)CC2)n1 [dasatanib] + O=C(Nc1ccccc1)c1cc([N+](=O)[O-])ccc1Cl [GW9662] (first compound 0.004 µM, partner dose 2 µM) | 77.9%
NC(=O)Nc1cc(-c2cccc(F)c2)sc1C(=O)N[C@H]1CCCNC1 + COc1cc2ncnc(Nc3ccc(Oc4ccccc4)cc3)c2cc1OC [SrcI1] (first compound 0.02 µM, partner dose 2 µM) | 97.6%

SMILES | cell count
NC(=O)Nc1cc(-c2cccc(F)c2)sc1C(=O)N[C@H]1CCCNC1 + COc1cc2c(Oc3ccc4[nH]c(C)cc4c3F)ncnc2cc1OCCCN1CCCC1 [cediranib] (first compound 0.02 µM, partner dose 0.4 µM) | 74.6%
C=CCn1c(=O)c2cnc(Nc3ccc(N4CCN(C)CC4)cc3)nc2n1-c1cccc(C(C)(C)O)n1 + N#Cc1c(O)c2c(-c3ccc(-c4ccccc4O)cc3)csc2[nH]c1=O [A769662] (first compound 0.02 µM, partner dose 2 µM) | 83.7%
NC(=O)Nc1cc(-c2cccc(F)c2)sc1C(=O)N[C@H]1CCCNC1 + c1cc(-c2cnn3cc(-c4ccc(OCCN5CCCCC5)cc4)cnc23)ccn1 [Dorsomorphin] (first compound 0.02 µM, partner dose 0.4 µM) | 93.8%
Cc1nc(Nc2ncc(C(=O)Nc3c(C)cccc3Cl)s2)cc(N2CCN(CCO)CC2)n1 [dasatanib] + O=C(CCCCCCC(=O)Nc1ccccc1)NO [vorinostat] (first compound 0.004 µM, partner dose 0.08 µM) | 65.8%
Cc1nc(Nc2ncc(C(=O)Nc3c(C)cccc3Cl)s2)cc(N2CCN(CCO)CC2)n1 [dasatanib] + Nc1cccc2c1CN(C1CCC(=O)NC1=O)C2=O [lenalidomide] (first compound 0.004 µM, partner dose 1 µM) | 63.7%
C=CCn1c(=O)c2cnc(Nc3ccc(N4CCN(C)CC4)cc3)nc2n1-c1cccc(C(C)(C)O)n1 + C[C@@H]1CCN(C(=O)CC#N)C[C@@H]1N(C)c1ncnc2[nH]ccc12 [CP690550] (first compound 0.02 µM, partner dose 1 µM) | 90.6%
CO[C@@H]1[C@H](N(C)C(=O)c2ccccc2)C[C@H]2O[C@]1(C)n1c3ccccc3c3c4c(c5c6ccccc6n2c5c31)C(=O)NC4 [Midostaurin] + O=C(Nc1ccccc1)c1cc([N+](=O)[O-])ccc1Cl [GW9662] (first compound 0.08 µM, partner dose 2 µM) | 98%
NC(=O)Nc1cc(-c2cccc(F)c2)sc1C(=O)N[C@H]1CCCNC1 + COc1ccc(-c2ccc3c(N4CCOCC4)nc(N4C[C@@H](C)O[C@@H](C)C4)nc3n2)cc1CO [KU0063794] (first compound 0.02 µM, partner dose 0.02 µM) | 86.1%
CO[C@@H]1[C@H](N(C)C(=O)c2ccccc2)C[C@H]2O[C@]1(C)n1c3ccccc3c3c4c(c5c6ccccc6n2c5c31)C(=O)NC4 [Midostaurin] + Oc1nc(-c2ccc(C(F)(F)F)cc2)nc2c1CSCC2 [XAV939] (first compound 0.08 µM, partner dose 2 µM) | 65.6%
C[C@]1(c2nc3c(C(N)=O)cccc3[nH]2)CCCN1 [Veliparib] + Cc1cc(N2CCOCC2)cc2[nH]c(-c3c(NC[C@@H](O)c4cccc(Cl)c4)cc[nH]c3=O)nc12 [BMS536924] (first compound 1.4 µM, partner dose 0.2 µM) | 81.4%
CN(C)S(=O)(=O)c1ccc2c(c1)/C(=C/c1cc3c([nH]1)CCCC3)C(=O)N2 + CCCCCCCCCCCC1=C(O)C(=O)C=C(O)C1=O [Embelin] (first compound 0.4 µM, partner dose 1.2 µM) | 81%
C[C@]1(c2nc3c(C(N)=O)cccc3[nH]2)CCCN1 [Veliparib] + c1cc(-c2cnn3cc(-c4ccc(OCCN5CCCCC5)cc4)cnc23)ccn1 [Dorsomorphin] (first compound 1.4 µM, partner dose 0.4 µM) | 89.1%
NC(=O)Nc1cc(-c2cccc(F)c2)sc1C(=O)N[C@H]1CCCNC1 + Cn1cc(/C=C2\C(=O)Nc3cccnc32)c2ccccc21 [GW441756] (first compound 0.02 µM, partner dose 0.4 µM) | 102%
CN(C)S(=O)(=O)c1ccc2c(c1)/C(=C/c1cc3c([nH]1)CCCC3)C(=O)N2 + Cc1cc([N+](=O)[O-])ccc1NS(=O)(=O)c1cc(Cl)ccc1Cl [FH535] (first compound 0.4 µM, partner dose 1 µM) | 92.3%
NC(=O)Nc1cc(-c2cccc(F)c2)sc1C(=O)N[C@H]1CCCNC1 + O=C(Nc1ccccc1)c1cc([N+](=O)[O-])ccc1Cl [GW9662] (first compound 0.02 µM, partner dose 2 µM) | 90.1%
